According to PubChem BioAssay AID493208 (National Center for Advancing Translational Sciences (NCATS), 2011):
Among all 44,000 compounds or so, about 340 (0.77%) were called active. Inconclusive results (about 5%) are left out. Calls come from the whole dose curve; as a rule, active = well fitted inhibition curve with a large enough effect; inconclusive = small, poorly fitted or top-dose-only effect; inactive = flat fitted curve, though single readings scatter. This is one part of the list.

experiment: Acumen qHTS Assay for Inhibitors of the mTORC1 Signaling Pathway in MEF (Tsc2-/-, p53-/-) Cells: Sytravon; conditions: phospho-rpS6 immunofluorescence/PI, 24 h; series mostly up to 38.3 µM; activity change, negative = inhibition: at the top concentration;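 note: plate controls were DMSO for no effect and rapamycin for full effect; nearly all actives have a fitted effect of over 50% in size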
Procedure, shortened: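 Tsc2-/-, p53-/- MEFs (empty-vector stable line) in DMEM + 10% FBS were treated with compounds 24 h at 37 degree Celsius, fixed, and immunostained for phospho-rpS6 (Alexa-488) with propidium iodide counterstain. Laser-scanning cytometry gave % positive cells, normalized against 7.5 nM rapamycin and DMSO.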

Row | Compound | activity change, negative = inhibition
1 | COc1cccc(CNC(=O)Cn2c(=O)ccc3cc(S(=O)(=O)N4CCC(C)CC4)ccc32)c1 | inactive: -11.4%
2 | COc1ccc(-c2[nH]c(-c3cccc(OC)c3)nc2SCC(=O)Nc2ccc3c(c2)OCO3)cc1 | inactive: -5.35%
3 | COc1ccccc1-c1nc(SCC(=O)c2ccccc2)n[nH]1 | inactive: -12%
4 | COc1ccc(CNc2nc(SCc3ccc(Cl)cc3)nc3ccccc23)cc1 | inactive: 0.497%
5 | COc1ccc(-c2c3c(=O)n(C)c(=O)n(C)c3c3n2-c2ccccc2NC3c2ccc(OC)cc2)cc1 (stereo not given) | inactive: -6.4%
6 | Cc1ccc(NC(=O)c2cc(S(=O)(=O)N(C)C3CCCCC3)ccc2F)cc1C | inactive: 3.62%
7 | COc1ccccc1C(=O)Oc1c(Sc2ccccc2)c(C)nn1C(C)(C)C | inactive: 3.23%
8 | CCN(c1cccc(C)c1)S(=O)(=O)c1ccc(N2CCCCS2(=O)=O)cc1 | inactive: -0.85%
9 | COc1ccc(NC(=O)c2ccc(-c3nc(CSc4ccc(C)cc4)c(C)o3)cc2)cc1Cl | inactive: -6.61%
10 | O=C(Nc1ccc(C(=O)N2CCN(c3cccc(Cl)c3)CC2)cc1)c1nsc2ccccc12 | inactive: 4.72%
11 | CCCCCN1C(C(=O)c2ccccc2)=C(NC(=O)c2ccc(OC)cc2)c2ccccc2S1(=O)=O | inactive: -9.95%
12 | Cc1cc(C)c(NC(=O)C(C)n2c(=O)c(C(F)(F)F)nc3ccccc32)c(C)c1 (stereo not given) | inactive: 6.44%
13 | CCC(=O)N1CCc2cc(S(=O)(=O)NC(C(=O)NCCc3ccccc3)C(C)C)ccc21 (stereo not given) | inactive: 0.364%
14 | Cc1cc(C)cc(OCC(=O)Nc2nc3c(s2)CC(C(C)(C)C)CC3)c1 (stereo not given) | inactive: -0.193%
15 | CCOC(=O)CC(NC(=O)CCc1c(C)nc2c(c(C)nn2-c2ccc(C)c(C)c2)c1C)c1ccc(C)cc1 (stereo not given) | inactive: -0.0784%
16 | Cc1cccc(-n2ncc(C(=O)N3CCN(C4CCCCC4)CC3)c2C2CCN(C(=O)OC(C)(C)C)CC2)c1 | inactive: -4.79%
17 | COc1ccc(OC)c2sc(NC(=O)c3ccc(S(=O)(=O)N4CCCC4)cc3)nc12 | inactive: 0%
18 | CC(NC(=O)c1ccc2c(c1)CCN2S(C)(=O)=O)c1ccccc1 (stereo not given) | inactive: -0.138%
19 | Cc1c(Cl)cccc1NC(=O)c1cccc(NC(=O)N2CCSc3ncccc32)c1 | inactive: -0.368%
20 | Cc1ccc(CNC(=O)c2ccc3c(c2)nc(C)n3-c2cccc(F)c2)cc1 | inactive: 1.34%
21 | CCOc1ccc(NC(=O)CSC2=Nc3ccccc3C3=NC(CCC(=O)NCc4ccccc4)C(=O)N23)cc1 (stereo not given) | inactive: 4.24%
22 | Cc1cc(C(F)(F)F)n2nc(-c3ccc(Br)cc3)cc2n1 | inactive: 2.79%
23 | CCCCOc1ccc(-c2nn(-c3ccccc3)cc2C2NC(=O)NC(C)=C2C(=O)OCC)cc1 (stereo not given) | inactive: -3.44%
24 | COc1ccc(OCC(=O)NCc2ccc3c(c2)CCN3C(=O)c2ccccc2)cc1 | inactive: -7.05%

Row | Compound | activity change, negative = inhibition
25 | COc1ccccc1N1CCN(c2ncnc3c2cnn3-c2cc(Cl)ccc2C)CC1 | inactive: 2.57%
26 | CCc1ccc(C(=O)c2cn(CC(=O)Nc3cccc(OC)c3)c3ccc(OC)cc3c2=O)cc1 | inactive: -0.195%
27 | Cc1cc2oc(C(=O)Nc3ccc(S(N)(=O)=O)cc3)cc(=O)c2cc1C | inactive: 5.18%
28 | O=C(c1cc2ccccc2oc1=O)N1CCN(c2ccc(Cl)cc2)CC1 | inactive: 1.43%
29 | O=C(NCCc1ccccc1)c1cnc2sc(N3CCCCCC3)nn2c1=O | inactive: 0%
30 | Cc1ccc(C(=O)N2c3ccc(C)cc3C(C)(c3ccccc3)CC2(C)C)cc1 (stereo not given) | inactive: 9.23%
31 | CCc1cccc(NC(=O)CN2C(=O)COc3ccc(S(=O)(=O)Nc4ccccc4)cc32)c1 | inactive: 1.8%
32 | CCOC(=O)c1ccc(N2C(=O)c3[nH]nc(-c4ccc(C)cc4)c3C2c2cccc(F)c2)cc1 (stereo not given) | inactive: -27.9%
33 | Cc1ccc(CSc2nc3ccc(NC(=O)COc4ccccc4)cc3s2)cc1 | inactive: 0.7%
34 | Cc1ccc(OCc2nc(-c3ccc(C(=O)N4CCN(c5ccccc5F)CC4)cc3)oc2C)cc1 | inactive: -0.65%
35 | COc1ccc(CNC(=O)Cn2c(SCC(=O)Nc3ccc(OC)cc3)nc3ccccc32)cc1 | inactive: -2.12%
36 | Cc1cccc(-n2ncc(C(=O)N3CCN(c4ccc(Cl)cc4)CC3)c2C2CCN(C(=O)OC(C)(C)C)CC2)c1 | inactive: 0.699%
37 | O=C1OC(C(=O)Nc2cccc(Br)c2)Cc2ccccc21 (stereo not given) | inactive: -3.38%
38 | CCc1ccc2nc(N(CCN(CC)CC)C(=O)c3ccco3)sc2c1 | inactive: -10.4%
39 | Cc1ccc(NC(=O)c2ccc(-c3cccc(Cl)c3C)o2)cc1 | inactive: 10.9%
40 | COc1ccc(OC)c(CNC(=O)c2cc3c(-c4ccc(OC)c(OC)c4)nn(C)c3s2)c1 | inactive: 0.714%
41 | CN(C)S(=O)(=O)N(CC(=O)NCCSCc1ccccc1)c1ccccc1 | inactive: 3.52%
42 | CCCCCn1c(=O)[nH]c2cc(C(=O)Nc3cc(C)cc(C)c3)ccc2c1=O | inactive: -13.5%
43 | Cc1cccc(N2C(=O)N(CC(=O)C(C)(C)C)c3ccccc3S2(=O)=O)c1C | inactive: -6.82%
44 | Cc1ccc(C)c(NC(=O)CN2CCCN(Cc3cccc(Cl)c3)S2(=O)=O)c1 | inactive: -4.62%
45 | COc1ccc(Cl)cc1NC(=O)c1cc(S(=O)(=O)NC2CCCCCC2)ccc1F | inactive: 0.481%
46 | Cc1cccc(NC(=O)CSc2cn(CC(=O)N3CCCCCC3)c3ccccc23)c1 | inactive: -8.55%
47 | Cc1cc(OC(C)C(=O)Nc2c(C(=O)c3ccc(F)cc3)oc3ccccc23)ccc1Cl (stereo not given) | inactive: -1.42%
48 | CCc1ccc(Sc2cc(C(=O)NCc3ccccc3OC)c3ccccc3n2)cc1 | inactive: 1.34%

Row | Compound | activity change, negative = inhibition
49 | COC(=O)c1ccc(OCC2c3cc(OC)c(OC)cc3CCN2C(=O)Cc2ccc(OC)cc2)cc1 (stereo not given) | inactive: -0.271%
50 | CCc1ccc(Sc2cc(C(=O)NCc3cccc(OC)c3)c3ccccc3n2)cc1 | inactive: 9.1%
51 | COc1ccc(C2NC(=O)N(C)C3=C2C(=O)N(c2cccc(Cl)c2)C3)cc1 (stereo not given) | inactive: -1.48%
52 | CCOc1ccc(N2CC(NC(=O)C(=O)c3c[nH]c4ccccc34)CC2=O)cc1 (stereo not given) | inactive: -1.11%
53 | CCn1c(=O)cc(SCC(=O)NCc2ccc(F)cc2Cl)c2ccccc21 | inactive: -7.41%
54 | COc1cccc(CNC(=O)c2c(C)nn(-c3cccc(C)c3)c2-n2cccc2)c1 | inactive: -4.26%
55 | O=C(NCCCc1ccccc1)c1nn(-c2ccccc2F)nc1CO | inactive: 0.158%
56 | O=C(NCCc1ccccc1)c1ccc(CSc2nc3cccnc3n2Cc2ccc(F)cc2)cc1 | inactive: -2.66%
57 | CC(=O)c1ccc(NC(=O)C2CCC(CNS(=O)(=O)c3ccc(Br)s3)CC2)cc1 (stereo not given) | inactive: 0.112%
58 | O=C(NC(=O)c1cccc(F)c1)Nc1ccc(-c2cc(C(F)(F)F)nn2-c2ccccc2)cc1 | inactive: -2.06%
59 | Cc1nc(-c2ccc(C)c(N3CCN(C(=O)Nc4ccccc4C(F)(F)F)CC3)c2)no1 | inactive: -1.13%
60 | Cc1ccc(C(=O)Nc2nnc(S(=O)(=O)N3CCOCC3)s2)cc1 | inactive: 2.75%
61 | COC(=O)c1ccc(NC(=O)C2(S(=O)(=O)c3ccc(C)cc3)CC2)cc1 | inactive: -15.6%
62 | COC(=O)c1sc(-c2ccccc2)cc1NC(=O)c1cccc(F)c1 | inactive: 0.128%
63 | O=C(NCc1ccc(F)cc1)C1CCN(C(=O)c2ccc(-n3ccc4ccccc43)s2)CC1 | inactive: -13.6%
64 | Cc1ccc(CN2CCCn3nc(C(=O)NCCC(C)C)cc3C2=O)cc1 | inactive: 0%
65 | Cc1ccc(S(=O)(=O)N2CCC(Oc3ccc(-n4cnnn4)cc3)CC2)cc1 | inactive: -1.68%
66 | COc1ccc(CC(=O)Nc2ccc3nc(Nc4cccc(Cl)c4)cc(C)c3c2)cc1OC | inactive: -7.94%
67 | COc1ccc(CNCCSc2nnnn2-c2ccccc2)cc1 | inactive: -11.8%
68 | COc1ccccc1-n1cc(-c2ccc(C)cc2)nc1S(=O)(=O)CC(=O)Nc1ccccc1C(F)(F)F | inactive: 0%
69 | CCc1ccc(-n2nnc(-c3nc(-c4ccccc4)no3)c2C)cc1 | inactive: -2.38%
70 | COc1ccc(CCNC(=O)c2ccc3c(c2)N(Cc2cccc(C)c2)C(=O)c2ccccc2S3(=O)=O)cc1OC | inactive: -1.49%
71 | CCn1cc(S(=O)(=O)c2cc(C)cc(C)c2)c(=O)c2cc(F)c(N3CCOCC3)cc21 | inactive: -1.33%
72 | COc1ccccc1NC(=O)CSc1nnc(-c2cccc(Cl)c2)o1 | inactive: 0.573%

Row | Compound | activity change, negative = inhibition
73 | CCOc1ccccc1-c1nc(-c2ccc(-c3ccccc3)nc2OCC)no1 | inactive: 0.706%
74 | COc1cc(OC)c(NC(c2nnc(-c3ccccc3)o2)c2ccc(F)cc2Cl)cc1Cl (stereo not given) | inactive: 3.85%
75 | COc1ccc2nc(N(Cc3cccnc3)C(=O)CCc3ccccc3)sc2c1 | inactive: -0.453%
76 | Cc1ccc(Nc2c3c(nc4nncn24)CCC3)cc1 | inactive: 1.7%
77 | Cc1cc(C)cc(-n2cnc3cc(C(=O)NCCc4ccccc4)ccc32)c1 | inactive: 5.5%
78 | Cc1ccc(C)c(N(C)C(=O)c2cn(C)c(=O)c3ccccc23)c1 | inactive: 5.18%
79 | CCOC(=O)c1c(Oc2ccc(C(=O)OC)cc2)nnc(-c2ccccc2)c1-c1ccccc1 | inactive: 6.63%
80 | Cc1ccc(CCNC(=O)CCc2cn(Cc3ccccc3C)c3ccccc23)cc1 | inactive: -18.9%
81 | COc1cc(NC(=O)Cn2c(SCc3ccc(F)cc3)nc3cccnc32)cc(OC)c1 | inactive: -19.7%
82 | CCN(C(=O)Cn1c(C(=O)OC)cc2oc3ccccc3c21)c1cccc(C)c1 | inactive: -0.498%
83 | O=C(c1cccc(Cl)c1)n1nc(-c2ccco2)nc1NCc1cccs1 | inactive: 5.48%
84 | O=C(CNC(=O)c1ccccc1Cl)OCc1cc(=O)n2ccsc2n1 | inactive: -5.76%
85 | Brc1csc(CN2CCc3nc(Nc4ccccc4)ncc3C2)c1 | inactive: 0%
86 | Cc1cccc(NC(=O)c2cc(S(=O)(=O)N3CCCCC3)c[nH]2)c1C | inactive: 0%
87 | Cc1cccc(Cn2c(SCc3ccc(C(=O)N4CCCCCC4)cc3)nc3ccncc32)c1 | inactive: -1.16%
88 | COc1cc(CN(C(=O)c2cc3ccccc3oc2=O)C2CCS(=O)(=O)C2)cc(OC)c1OC (stereo not given) | inactive: 4.98%
89 | Cc1ccc(Cn2c(=O)n(CCCCC(=O)NCCc3ccc(Cl)cc3)c(=O)c3ccccc32)cc1 | inactive: -10.6%
90 | Cn1c(=O)c2c(n3c4ccccc4nc13)NC(=O)CC2c1ccccc1F (stereo not given) | inactive: -10%
91 | CC1CCc2c(sc3nnn(Cc4ccc(F)cc4)c(=O)c23)C1 (stereo not given) | inactive: -1.02%
92 | O=C(NCc1ccccc1)c1cc(-c2cccc(Cl)c2)on1 | inactive: -24.7%
93 | CCc1nnc2c(Nc3ccc(Br)c(C)c3)nc3ccccc3n12 | inactive: -13.8%
94 | COc1ccc(S(=O)(=O)N2CCN(c3ccc(F)cc3)CC2)cc1-c1noc(C)n1 | inactive: 3.57%
95 | CCc1ccccc1NC(=O)Cn1nnc(C(=O)OC)c1C(=O)OC | inactive: 0.734%
